Measurements reported in PubChem BioAssay AID624171 (National Center for Advancing Translational Sciences (NCATS), 2012).
Where “and” joins values, the source holds several entries; their conditions need not be identical. Identical values can stand only once. About 1,200 (0.29%) of roughly 410,000 compounds were called active. The inconclusive results got no clear call from the source; some entries with a clear call stand among them for comparison. Calls follow the shape of the dose curve; as a rule, active = well fitted activation curve with a large enough effect; inconclusive = small, poorly fitted or top-dose-only effect; inactive = flat fitted curve, though single readings scatter. Potencies of inconclusive entries are doubtful fits and often do not repeat.

Assay: qHTS of Nrf2 Activators; also: nearly all actives have a fitted effect of over 65% in size
Conditions: AREc32 ARE-luciferase reporter (MCF7-derived line), luminescence, 24 h; series mostly up to 46.1 µM
Summary of the method: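 Each well held 1000 AREc32 cells, which were incubated with compound for 24 hr at 37 deg C after overnight attachment, and ARE reporter activity was quantified by firefly luciferase luminescence.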
Potency is read from the fitted curve at half-maximal effect; tags tell the direction and shape of the fitted curve.

**Q.** Which Potency does the source give for `Clc1ccc(-c2nc3ncccn3c2Cl)cc1` here?
**A.** inconclusive: 2.51 µM [activator, full curve, poor fit]

**Q.** Which Potency does the source give for `Cc1csc(NC(=O)CSc2nsc(SCC(=O)Nc3nc(C)cs3)c2C#N)n1` here?
**A.** inconclusive: 12.6 µM [activator, single point]

**Q.** With `O=c1c2cc(F)ccc2sn1-c1ccccc1Cl` as the compound, how does the Potency read?
**A.** inconclusive: 35.5 µM [activator, single point]

**Q.** With `COP(=O)(OC)c1ccc(NCc2cc(O)ccc2O)cc1` as the compound, how does the Potency read?
**A.** inconclusive: 31.6 µM [activator, single point]

**Q.** For `O=C(NC(=S)Nc1cc(C(F)(F)F)ccc1Cl)c1ccccc1`, which Potency is on record?
**A.** active: 3.16 µM

**Q.** Which Potency does the source give for `COc1cc(/C=C/C(=O)c2ccc(Cl)s2)cc(OC)c1O` here?
**A.** inconclusive: 12.6 µM [activator, single point]

**Q.** For `Oc1ccccc1Oc1ncc(Br)c(Cl)n1`, which Potency is on record?
**A.** inconclusive: 31.6 µM [activator, single point]

**Q.** For `COc1cc(/C=C/C(=O)OCC(=O)Nc2ccc(NC(C)=O)cc2)cc(S(=O)(=O)N2CCc3ccccc32)c1OC`, which Potency is on record?
**A.** inconclusive: 20 µM [activator, single point]

**Q.** For `COc1ccc(-n2nnc3c(SCC(=O)NCc4ccco4)ncnc32)cc1`, which Potency is on record?
**A.** inconclusive: 35.5 µM [activator, single point]

**Q.** With `CC1(C)CCCN(C(=O)c2coc(=O)c(Br)c2)C1` as the compound, how does the Potency read?
**A.** inconclusive: 25.1 µM [activator, single point]

**Q.** For `COC(=O)c1ccc(CCc2cc(O)c(Br)cc2O)cc1`, which Potency is on record?
**A.** inconclusive: 25.1 µM [activator, single point]

**Q.** For `O=[N+]([O-])c1ccc(/C=N/Nc2ccnc3cc(Cl)ccc23)o1`, which Potency is on record?
**A.** inconclusive: 3.55 µM [activator, single point]

**Q.** With `CCN(CC)CCNC(=O)c1ccc(NC(=O)c2ccc3c(c2)CCC3)cc1` as the compound, how does the Potency read?
**A.** inactive

**Q.** For `CCc1nnc(NC(=O)c2nn(-c3ccccc3)nc2C)s1`, which Potency is on record?
**A.** inconclusive: 12.6 µM [activator, single point]

**Q.** With `COC(=O)c1ccccc1S(=O)(=O)N1CCC(C(=O)NC2=NCCS2)CC1` as the compound, how does the Potency read?
**A.** inactive

**Q.** Which Potency does the source give for `CCn1c(SCC(=O)Nc2nc3ccc(C)cc3s2)nc2c(c1=O)SC(C)C2` (stereo not given) here?
**A.** inactive

**Q.** With `O=C(NCCCN1CCN(c2ccc(F)cc2)CC1)Nc1ccc(Cl)cc1` as the compound, how does the Potency read?
**A.** inactive

**Q.** For `CCCc1nc([N+](=O)[O-])c(S(=O)(=O)c2ccccc2)n1CC(C)C`, which Potency is on record?
**A.** active: 5.62 µM

**Q.** Which Potency does the source give for `Cn1cc(C(=O)N/N=C/C(Br)=C\c2ccccc2)ccc1=O` here?
**A.** inconclusive: 3.98 µM [activator, single point]

**Q.** For `COc1cccc(C(=O)/C=C/Nc2cc(C)ccc2O)c1`, which Potency is on record?
**A.** inconclusive: 17.8 µM [activator, single point]

**Q.** With `CCN(CC)C(=O)Sc1cccc2cccnc12` as the compound, how does the Potency read?
**A.** inconclusive: 22.4 µM [activator, single point]

**Q.** For `Nc1nc2ccc(OC(F)(F)F)cc2s1`, which Potency is on record?
**A.** inactive

**Q.** For `N#Cc1cccc(NC(=O)CSc2ccc3c4c(cccc24)C(=O)c2ccccc2-3)c1`, which Potency is on record?
**A.** inconclusive: 1.12 µM [activator, full curve, poor fit]

**Q.** For `Cc1cccnc1Nc1nc(-c2ccc(O)cc2O)cs1`, which Potency is on record?
**A.** inconclusive: 20 µM [activator, single point]

**Q.** For `Cc1cccc(NC(=O)CSc2nc(-c3ccco3)nc3cc(=O)[nH]n23)c1`, which Potency is on record?
**A.** inconclusive: 20 µM [activator, single point]

**Q.** Which Potency does the source give for `CCOc1ccc(NC(=O)C2C(C(=O)O)C3(Cl)C(Cl)=C(Cl)C2(Cl)C3(Cl)Cl)cc1` (stereo not given) here?
**A.** inactive

**Q.** With `Cc1cccc(NC(=O)c2nc(S(C)(=O)=O)ncc2Cl)c1` as the compound, how does the Potency read?
**A.** inactive

**Q.** With `O=C(NNC(=S)NC(=O)c1cccnc1)c1ccc(Cl)cc1` as the compound, how does the Potency read?
**A.** inactive

**Q.** For `Oc1ccccc1-c1cc(-c2cccc(F)c2)n[nH]1`, which Potency is on record?
**A.** inconclusive: 3.16 µM [activator, single point]

**Q.** For `CCCOc1ccc(CNC(=O)C(CC)n2nc(C)c3sc4ccccc4c3c2=O)cc1` (stereo not given), which Potency is on record?
**A.** inactive

**Q.** With `O=c1ccc2c(o1)/C(=C/C=C(Cl)Cl)CCC2` as the compound, how does the Potency read?
**A.** inconclusive: 20 µM [activator, single point]

**Q.** For `c1coc(-c2ccnc3nc(-n4cccc4)nn23)c1`, which Potency is on record?
**A.** active: 7.94 µM

**Q.** For `N#C/C(=C\c1cccc([N+](=O)[O-])c1)c1nnc2n1CCCCC2`, which Potency is on record?
**A.** inconclusive: 10 µM [activator, partial curve]

**Q.** For `COc1ccc(Oc2c(Cl)cnn(-c3ccc(Cl)c(Cl)c3)c2=O)cc1`, which Potency is on record?
**A.** inconclusive: 22.4 µM [activator, single point]

**Q.** With `COc1ccc(C(C(=O)NC2CCCCC2)N(C(=O)CCl)c2cccc(Cl)c2)cc1` (stereo not given) as the compound, how does the Potency read?
**A.** inconclusive: 7.08 µM [activator, partial curve]

**Q.** For `O=C(NC(=S)Nc1ccccc1[N+](=O)[O-])c1ccccc1`, which Potency is on record?
**A.** inconclusive: 12.6 µM [activator, partial curve, poor fit]

**Q.** Which Potency does the source give for `N#Cc1c(-c2ccc(F)cc2)noc1N` here?
**A.** inconclusive: 25.1 µM [activator, single point]

**Q.** For `CNc1ccc(Br)cc(C(=O)/C=C/c2ccc3c(c2)OCO3)c1=O`, which Potency is on record?
**A.** inconclusive: 22.4 µM [activator, single point]

**Q.** For `O=C(CSc1nnc2ncccn12)Nc1cccc2ccccc12`, which Potency is on record?
**A.** inconclusive: 10 µM [activator, partial curve, poor fit]

**Q.** Which Potency does the source give for `COc1nc(-c2ccccc2)cc(-c2ccccc2)n1` here?
**A.** inconclusive: 3.98 µM [activator, partial curve, poor fit]

**Q.** For `Cc1cc(S(=O)(=O)Nc2cccnc2)c(C)s1`, which Potency is on record?
**A.** inactive

**Q.** For `Cc1ccccc1C#CC1=CC(=O)CC(C)(C)C1`, which Potency is on record?
**A.** inconclusive: 22.4 µM [activator, single point]

**Q.** With `Cc1cc(C(=O)Nc2nnc(C(F)(F)F)s2)cs1` as the compound, how does the Potency read?
**A.** active: 8.91 µM

**Q.** For `O=C(CN1CCCCC1)Nc1nnc(-c2ccccc2)s1`, which Potency is on record?
**A.** inconclusive: 3.55 µM [activator, full curve]

**Q.** With `CCc1ccc(Oc2c(C(F)(F)F)oc3c(CN4CCN(C)CC4)c(O)ccc3c2=O)cc1` as the compound, how does the Potency read?
**A.** inactive

**Q.** Which Potency does the source give for `CCOc1ccccc1CNC(=O)c1cnc2sc(N3CCCCCC3)nn2c1=O` here?
**A.** inactive

**Q.** With `COc1ccccc1CN(C)CC(=O)Nc1cccc2ccccc12` as the compound, how does the Potency read?
**A.** inactive

**Q.** With `Cc1cccc(C)c1OCc1cc(C(=O)N2CCC(c3ccncc3)CC2)no1` as the compound, how does the Potency read?
**A.** inactive

**Q.** With `CC1Oc2ccccc2OC1C(=O)Nc1ccccn1` (stereo not given) as the compound, how does the Potency read?
**A.** active: 7.08 µM

**Q.** With `COc1cc(OC)c(NC(=O)c2ccco2)cc1Cl` as the compound, how does the Potency read?
**A.** inconclusive: 10 µM [activator, partial curve, poor fit]

**Q.** For `CCOC(=O)c1cnc2c(C)c(-c3ccccc3)[nH]n2c1=O`, which Potency is on record?
**A.** inactive

**Q.** For `O=C(CCS(=O)(=O)c1ccccc1)Nc1nc2ccc(F)cc2s1`, which Potency is on record?
**A.** inconclusive: 10 µM [activator, partial curve, poor fit]

**Q.** For `COc1ccccc1N(C)S(=O)(=O)c1ccc(C(=O)Nc2cc(F)ccc2C)cc1`, which Potency is on record?
**A.** inactive

**Q.** Which Potency does the source give for `Cc1cscc1-c1nc(NCC2CC2)nc2ccsc12` here?
**A.** inconclusive: 3.55 µM [activator, single point]

**Q.** For `COc1cc(OC)cc(C(=O)O/N=C(\N)c2cccc(C)c2)c1`, which Potency is on record?
**A.** inconclusive: 10 µM [activator, partial curve]

**Q.** With `Oc1c(-c2cc(-c3ccco3)[nH]n2)ccc2ccccc12` as the compound, how does the Potency read?
**A.** inconclusive: 1.12 µM [activator, full curve, poor fit]

**Q.** With `COc1cc2c(cc1OC)/C(=C/c1ccc(Br)cc1)C(=O)OC2` as the compound, how does the Potency read?
**A.** inconclusive: 22.4 µM [activator, partial curve, poor fit]

**Q.** With `CN(C)Cc1c(C(=O)Nc2ccccc2)[nH]c2ccccc12` as the compound, how does the Potency read?
**A.** inactive

**Q.** For `CSc1ccccc1NC(=O)CSc1nnnn1-c1ccccc1SC`, which Potency is on record?
**A.** inactive

**Q.** With `COc1cc2ccccc2cc1C(=O)N/N=C/c1cccs1` as the compound, how does the Potency read?
**A.** inconclusive: 14.1 µM [activator, partial curve, poor fit]

**Q.** With `CCCOc1ccc(Cn2c(=O)oc3ccc(C)cc32)cc1OC` as the compound, how does the Potency read?
**A.** inactive

**Q.** For `COc1ccc(OC)c(CCNC(=O)c2ccc3c(=O)[nH]c4c(C(=O)NC(C)C)sc(=S)n4c3c2)c1`, which Potency is on record?
**A.** inactive

**Q.** Which Potency does the source give for `CC(=O)/C(N=Nc1cc(C)ccc1O)=C(\C)O` here?
**A.** inconclusive: 12.6 µM [activator, partial curve, poor fit]

**Q.** Which Potency does the source give for `Clc1ccccc1-c1ncc(-c2ccccc2)o1` here?
**A.** active: 10 µM

**Q.** For `Cc1cccc(C)c1OCCn1c(C2CC(=O)N(c3cccc(Cl)c3)C2)nc2ccccc21` (stereo not given), which Potency is on record?
**A.** inactive

**Q.** With `O=c1cc2c(nn1Cc1ccccc1Cl)-c1ccccc1CC2` as the compound, how does the Potency read?
**A.** inactive

**Q.** For `CCn1cc(C(=O)NCc2ccco2)c(=O)c2ccc(C)nc21`, which Potency is on record?
**A.** inconclusive: 35.5 µM [activator, partial curve, poor fit]

**Q.** With `COCCCC1CCN(C(=O)c2cc(COc3ccc(C)nc3)on2)CC1` as the compound, how does the Potency read?
**A.** inactive

**Q.** Which Potency does the source give for `CC(Sc1nn(-c2ccc(F)cc2)c(=S)s1)C(=O)c1c(N)n(C)c(=O)n(C)c1=O` (stereo not given) here?
**A.** inactive

**Q.** For `COc1ccc(Cl)cc1NC(=O)c1cnccn1`, which Potency is on record?
**A.** active: 12.6 µM

**Q.** With `COc1ccc(-c2cc(C(F)(F)F)nc(S(=O)(=O)CCCC(=O)Nc3cccc(O)c3)n2)cc1OC` as the compound, how does the Potency read?
**A.** inconclusive: 5.62 µM [activator, single point] and inconclusive: 3.55 µM [activator, single point]

**Q.** With `N#Cc1c(NC(NC(=O)c2ccco2)C(=O)c2ccccc2)sc2c1CCCC2` (stereo not given) as the compound, how does the Potency read?
**A.** inconclusive: 35.5 µM [activator, partial curve, poor fit]

**Q.** For `COC(=O)c1cc(=O)n(Cc2cccs2)c(=Nc2ccccc2)s1`, which Potency is on record?
**A.** inconclusive: 31.6 µM [activator, single point]

**Q.** Which Potency does the source give for `COc1ccc(Cl)cc1NC(=S)NC(=O)c1ccco1` here?
**A.** active: 10 µM

**Q.** For `C[C@H](CO)N1C[C@H](C)[C@@H](CN(C)C)Oc2c(NC(=O)CCCCCC(=O)Nc3ccccc3N)cccc2C1=O`, which Potency is on record?
**A.** inconclusive: 20 µM [activator, single point]
